This note sets out measurements from PMC4336329 (PLoS ONE, 2015).

The structures appear in SMILES notation. Among all 310,000 compounds or so, about 2,200 (0.71%) showed an effect of 50% or more. Effects have a minus sign here. The list shows a part of the results.

For this experiment, the target named is human ether-à-go-go-related gene (hERG) potassium channel (human, UniProt Q12809). In words: primary screen, population patch clamp on CHO cells stably expressing hERG.
Sequence of human ether-à-go-go-related gene (hERG) potassium channel (Q12809 whole entry, looked up): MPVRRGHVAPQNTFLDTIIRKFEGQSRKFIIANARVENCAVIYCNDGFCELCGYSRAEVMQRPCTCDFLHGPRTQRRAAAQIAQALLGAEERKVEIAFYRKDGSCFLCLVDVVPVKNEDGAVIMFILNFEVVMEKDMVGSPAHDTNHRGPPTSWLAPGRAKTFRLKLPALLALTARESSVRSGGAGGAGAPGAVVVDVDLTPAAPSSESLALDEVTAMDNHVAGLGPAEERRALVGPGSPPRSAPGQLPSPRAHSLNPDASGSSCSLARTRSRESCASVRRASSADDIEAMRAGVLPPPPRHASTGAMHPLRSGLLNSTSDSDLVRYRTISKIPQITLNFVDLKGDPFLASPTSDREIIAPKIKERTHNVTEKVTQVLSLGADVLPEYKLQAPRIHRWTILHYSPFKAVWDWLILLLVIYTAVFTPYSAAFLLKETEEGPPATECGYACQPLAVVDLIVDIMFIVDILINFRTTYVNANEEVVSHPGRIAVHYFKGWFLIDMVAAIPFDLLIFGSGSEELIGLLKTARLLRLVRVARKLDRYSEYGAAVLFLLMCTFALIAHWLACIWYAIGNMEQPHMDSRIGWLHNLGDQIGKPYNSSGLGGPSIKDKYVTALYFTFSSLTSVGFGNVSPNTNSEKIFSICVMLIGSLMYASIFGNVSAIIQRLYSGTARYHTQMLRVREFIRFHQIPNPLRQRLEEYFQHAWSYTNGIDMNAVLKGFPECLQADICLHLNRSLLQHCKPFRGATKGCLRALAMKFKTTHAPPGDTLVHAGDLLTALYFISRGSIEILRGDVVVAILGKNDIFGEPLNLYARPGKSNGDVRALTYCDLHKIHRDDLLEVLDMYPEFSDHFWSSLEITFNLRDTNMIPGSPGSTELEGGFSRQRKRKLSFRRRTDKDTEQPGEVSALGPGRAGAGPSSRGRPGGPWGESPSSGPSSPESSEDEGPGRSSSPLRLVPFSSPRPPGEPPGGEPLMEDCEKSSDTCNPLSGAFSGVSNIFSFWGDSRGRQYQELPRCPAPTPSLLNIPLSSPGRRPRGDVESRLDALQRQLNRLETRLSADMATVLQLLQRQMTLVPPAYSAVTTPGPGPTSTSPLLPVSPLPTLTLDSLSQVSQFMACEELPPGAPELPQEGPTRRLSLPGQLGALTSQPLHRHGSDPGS
On to `COc1ccc(OC)c(C(C(=O)NCc2ccco2)N(C(=O)Cn2nnc3ccccc32)C2CC2)c1` (centres unmarked), for which the “hERG current change (%, negative = inhibition) at 1uM” value is recorded as 11.7%.

On to `COc1ccc(N2CC(C(=O)Nc3ccc(S(=O)(=O)Nc4nccs4)cc3)CC2=O)c(OC)c1` (centres unmarked), for which the “hERG current change (%, negative = inhibition) at 1uM” value is given as 4.38%.

In the case of `COc1ccc(NC(=O)C(C)Sc2nnc3c4c(nc(-c5ccc(OC)cc5)n23)CC(C)(C)OC4)cc1` (centres unmarked), the “hERG current change (%, negative = inhibition) at 1uM” value came to 12.8%.

On to `Cc1ccc(N(CCC#N)C(=O)COC(=O)c2cc(C)oc2C)cc1`, for which the “hERG current change (%, negative = inhibition) at 1uM” value is reported as 11%.

With `CCCCOC(=O)c1ccc(NC(c2ccc(C)cc2)P(=O)(OC)OC)cc1` (centres unmarked), the “hERG current change (%, negative = inhibition) at 1uM” value is 1.78%.

Consider `CC(C(=O)NCCS(=O)(=O)c1ccc(Br)cc1)S(=O)(=O)c1ccc(Cl)cc1` (centres unmarked), for which the “hERG current change (%, negative = inhibition) at 1uM” value is -5.26%.

Turning to `CCOC(=O)c1csc(N)c1-c1ccc([N+](=O)[O-])cc1`, the “hERG current change (%, negative = inhibition) at 1uM” value is 13.7%.

With `Cn1c(-c2cccc(Br)c2)cnc1NCc1cccnc1`, the “hERG current change (%, negative = inhibition) at 1uM” value is recorded as -18.6%.

Turning to `O=C(COC(=O)c1ccc2[nH]c3c(c2c1)CCCC3)Nc1ccccc1Cl`, the “hERG current change (%, negative = inhibition) at 1uM” value is 12%.

Take `CCOC(=O)c1[nH]c(C)c(C(=O)NC2CCCCC2)c1C`: the “hERG current change (%, negative = inhibition) at 1uM” value was found to be 9.46%.

In the case of `Cn1c(=O)c2c(nc(NCc3ccccc3)n2CC(=O)NCc2ccccc2)n(C)c1=O`, the “hERG current change (%, negative = inhibition) at 1uM” value is listed as 10.4%.

As to `C[C@H]1CC[C@@]2(O[C@H](CCO)C[C@@H](O)[C@@H]2O)O1`, the “hERG current change (%, negative = inhibition) at 1uM” value was 9.11%.

`CC(C)(C)NC(=O)/C=C/c1ccc(C(F)(F)F)cc1`: the “hERG current change (%, negative = inhibition) at 1uM” value is 3.72%.

Regarding `CCN(CC)C(=O)CSc1nc(Cc2ccccc2)nc2ccccc12`, the “hERG current change (%, negative = inhibition) at 1uM” value turned out to be 17.4%.

As to `CCOC(=O)C1=C(C)NC(=O)NC1c1ccc(OCCO)c(OC)c1` (centres unmarked), the “hERG current change (%, negative = inhibition) at 1uM” value is listed as 16.9%.

In the case of `CCCn1nc(C(=O)Nc2ccc3c(c2)OCO3)c2ccccc2c1=O`, the “hERG current change (%, negative = inhibition) at 1uM” value was found to be 3.16%.

With `CCS(=O)(=O)N1CCN(Cc2ccccc2OC)CC1.O=C(O)C(=O)O`, the “hERG current change (%, negative = inhibition) at 1uM” value is 11.4%.

`CC(C(=O)NCCC1=CCCCC1)N1C(=O)c2ccccc2C1=O` (centres unmarked): the “hERG current change (%, negative = inhibition) at 1uM” value is 8.47%.

Turning to `CCOC(=O)/C(C#N)=C/c1c(Oc2cccc(C)c2)nc2c(C)cccn2c1=O`, the “hERG current change (%, negative = inhibition) at 1uM” value is recorded as 16.1%.

As to `CCOC(=O)Cc1ccc(NC(=O)c2ccc([N+](=O)[O-])cc2)cc1`, the “hERG current change (%, negative = inhibition) at 1uM” value came to 10.1%.

For `Cc1cc(C)c(NC2=NCC(=O)N2C2CCCCC2)c(C)c1`, the “hERG current change (%, negative = inhibition) at 1uM” value came out at 8.28%.

`COc1ccc(/C=N\NC(=O)c2ccc(Cn3cc(Br)c([N+](=O)[O-])n3)o2)c(OC)c1C`: the “hERG current change (%, negative = inhibition) at 1uM” value was 14.3%.

`CCN(CC)S(=O)(=O)c1ccc(N2CCOCC2)c(C(=O)O)c1`: the “hERG current change (%, negative = inhibition) at 1uM” value is recorded as 2.92%.

As for `CC(C)(C)c1ccc(OCCC(=O)NCCc2ccc(S(N)(=O)=O)cc2)cc1`, the “hERG current change (%, negative = inhibition) at 1uM” value is 5.64%.

As to `COc1ccccc1Nc1nn2c(=O)c3ccc(C(=O)N4CCCC(C)C4)cc3nc2s1` (centres unmarked), the “hERG current change (%, negative = inhibition) at 1uM” value was 9.93%.

Consider `O=C(O)c1ccc(N2C(=O)c3cccnc3C2=O)cc1`, for which the “hERG current change (%, negative = inhibition) at 1uM” value is 15.5%.

Consider `Cc1cccc(Cn2c(SCCN3CCOCC3)nc3c2c(=O)n(C)c(=O)n3C)c1`, for which the “hERG current change (%, negative = inhibition) at 1uM” value came out at 1.11%.

Turning to `Cc1ccccc1NC(=S)N(Cc1ccccn1)Cc1ccccc1Cl`, the “hERG current change (%, negative = inhibition) at 1uM” value amounted to 0.982%.

Regarding `CCOC(=O)C1CCN(Cc2cn[nH]c2-c2ccccc2)CC1.O=C(O)C(=O)O`, the “hERG current change (%, negative = inhibition) at 1uM” value is on record as 14.2%.

`CC1(C)C(=O)Nc2ccccc2N1C(=O)COc1cccnc1[N+](=O)[O-]`: the “hERG current change (%, negative = inhibition) at 1uM” value was determined as 6.9%.

With `COCCn1c(=NC(=O)CSC(C)=O)sc2cc(OC)ccc21`, the “hERG current change (%, negative = inhibition) at 1uM” value was -16.2%.

Consider `C(=C\c1ccccc1)/CSc1ccccn1`, for which the “hERG current change (%, negative = inhibition) at 1uM” value amounted to 3%.

Take `C=CCOc1ccc(NC(=O)C(=O)NCCCn2ccnc2)cc1`: the “hERG current change (%, negative = inhibition) at 1uM” value was -6%.

Consider `Cc1cc(C(=O)N2CCCC(N3CCN(c4ccc(F)cc4)CC3)C2)c(C)o1` (centres unmarked), for which the “hERG current change (%, negative = inhibition) at 1uM” value is given as -29.3%.

Take `O=c1[nH]c(SCc2c(Cl)cccc2Cl)nc2ccccc12`: the “hERG current change (%, negative = inhibition) at 1uM” value is given as -0.189%.

For `CCc1ccc(C(=O)COC(=O)c2n[nH]c3ccccc23)cc1`, the “hERG current change (%, negative = inhibition) at 1uM” value came out at 6.32%.

Take `O=c1[nH]c(=S)n(CCC2=CCCCC2)c(O)c1/C=N/N1CCOCC1`: the “hERG current change (%, negative = inhibition) at 1uM” value was -0.025%.

As for `O=C(O)/C=C/C(=O)Nc1ccc(Cc2ccc(NC(=O)/C=C/C(=O)O)cc2)cc1`, the “hERG current change (%, negative = inhibition) at 1uM” value amounted to 20.1%.

`Cc1cc(C)c(S(=O)(=O)N2CCCc3ccccc32)c(C)c1`: the “hERG current change (%, negative = inhibition) at 1uM” value is given as 10.3%.

In the case of `CCc1cc2c(s1)NC(=O)CN=C2c1cccs1`, the “hERG current change (%, negative = inhibition) at 1uM” value is -6.49%.

For `CC1CCCC(NC(=O)CCC(=O)N2CCOc3ccccc32)C1C` (centres unmarked), the “hERG current change (%, negative = inhibition) at 1uM” value is given as 14.3%.

For the compound `CN(Cc1ccon1)C(=O)CCc1nnc(CCCCc2ccccc2)o1`, the “hERG current change (%, negative = inhibition) at 1uM” value is 7.92%.

Regarding `O=C(CN1CCN(S(=O)(=O)c2ccc(Cl)c(Cl)c2)CC1)N1CCCCC1`, the “hERG current change (%, negative = inhibition) at 1uM” value was -17.6%.

As to `CC(C)NC(=O)N(Cc1ccc(Cl)cc1)Cc1cccs1`, the “hERG current change (%, negative = inhibition) at 1uM” value is listed as 2.33%.
